About 5,300 (4.4%) of roughly 120,000 compounds were called active. The shares of active, inactive and inconclusive entries below differ from those in the screen. Calls come from the whole dose curve; as a rule, active = well fitted inhibition curve with a large enough effect; inconclusive = small, poorly fitted or top-dose-only effect; inactive = no such curve, though single readings can be large or run the other way. Potencies of inconclusive entries are doubtful fits and often do not repeat.
Assay: qHTS Primary assay for Inhibitors of Plasmodium falciparum Dd2 growth in vitro; note: nearly all actives have a fitted effect of over 65% in size;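 for activity, negative = inhibition: plate controls were DMSO vehicle for no effect and reference drug for full effect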
Conditions: P. falciparum Dd2 growth, SYBR Green, 72 h; activity, negative = inhibition: at 28.9 µM (top of the series) unless noted; series mostly up to 28.9 µM
How it was run: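 Readout: SYBR Green fluorescence, 485 nm excitation, 535 nm emission, after ~16 h lysis at 37C. Before that, Dd2-infected red cells (2.5% hematocrit) grew 72 h with compound, 29 uM top final concentration.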
With `Cc1cccc(Nc2ncncc2-c2nc(-c3ccccc3)no2)c1C` the Potency was “inactive”. With `CN(C)CCNC(=O)C[C@@H]1c2nc(NC(=O)c3ccco3)sc2C[C@@H]2[C@](C)(CO)[C@H](O)CC[C@]21C` the Potency was inconclusive: 10 µM [inhibitor, single point]. In the case of `Cc1cc(C)n2nc(C(=O)N3CCC(Cc4cccc(C(N)=O)c4)C3)nc2n1` (centres undefined), the Potency is reported as inconclusive: 2.24 µM [inhibitor, partial curve, poor fit]. For `COC(=O)c1ccccc1NC(=O)C1CCCN(c2ncnc3onc(C)c23)C1` (centres undefined), the Potency was “inactive”. For `Cc1ccccc1CNC(=O)CCC[C@@H]1[C@H]2CCCN3CCC[C@@H](CN1Cc1cccnc1)[C@@H]23`, the Potency was inconclusive: 3.98 µM [inhibitor, single point]. In the case of `Clc1ccc(-c2cnc3n2C[C@H](CNCc2ccc4c(c2)OCO4)OC3)cc1`, the Potency is reported as inconclusive: 12.6 µM [inhibitor, partial curve, poor fit]. In the case of `COc1ccc(CN2CCC3(C2)C(=NC2CCCCC2)NC(=O)N3c2cccc(OC)c2)cc1` (centres undefined), the Potency is reported as active: 2.82 µM. With `CC(C)N1C[C@H](O)C[C@H]1c1nnc2n1CCN(C(=O)c1cccs1)C2` the Potency was inconclusive: 7.08 µM [inhibitor, partial curve, poor fit]. In the case of `O=C(CCc1nc2ccccc2s1)NCCc1noc(-c2ccncc2)n1`, the Potency is reported as inconclusive: 12.6 µM [inhibitor, single point]. With `NCCc1cccc(CN2CCCC(CO)(CC3CC3)C2)c1` (centres undefined) the Potency was inconclusive: 14.1 µM [inhibitor, partial curve]. With `COCCN1C(=O)c2cccn2CC1CNC(=O)NCc1ccccc1` (centres undefined) the Potency was “inactive”. In the case of `CC(C)c1ccc(NC(=O)[C@@H]2COCC(=O)N2Cc2ccccc2)cc1`, the Potency is reported as inconclusive: 4.47 µM [inhibitor, partial curve, poor fit]. With `O=C(CCC1N=C2c3ccccc3N=C(SCC(=O)Nc3ccc(F)cc3)N2C1=O)NCc1cccs1` (centres undefined) the Potency was inconclusive: 11.2 µM [inhibitor, single point]. In the case of `Cc1ccc(NC(=O)C(Cc2ccccc2)N2Cc3ccccc3C2=O)cc1Cl` (centres undefined), the Potency is reported as inconclusive: 10 µM [inhibitor, single point]. With `Cc1ccc(C2Cn3nnc(C(=O)N4CCC(C(=O)NCC5CCCCC5)CC4)c3CO2)cc1` (centres undefined) the Potency was “inactive”. In the case of `COc1ccc(C(=O)N2CCCCCCNC(=O)[C@@H]3CCC[C@@H]32)c(OC)n1`, the Potency is reported as “inactive”. With `CN1C[C@@H](NC(=O)c2ccccc2)C[C@H]1c1nc(-c2ccc(F)cc2)no1` the Potency was inconclusive: 15.8 µM [inhibitor, partial curve, poor fit]. For `CC(=O)N1CCC(C2CCN(Cc3cc(Cl)ccc3F)C2)CC1` (centres undefined), the Potency was inconclusive: 0.112 µM [inhibitor, full curve, poor fit]. In the case of `CN1C(=O)C2(CCN(C(=O)Cc3cccc(F)c3)C2)c2ccccc21` (centres undefined), the Potency is reported as inconclusive: 11.2 µM [inhibitor, single point]. For `COCCNC(=O)[C@H]1CCC[C@H]1NC(=O)c1cnc(C)cn1`, the Potency was “inactive”. In the case of `CN(C)c1nc2c(c(N3C[C@@H](CN4CCCC4)[C@@H](CO)C3)n1)CCCC2`, the Potency is reported as inconclusive: 12.6 µM [inhibitor, partial curve, poor fit]. With `CC(C)c1ccc(NC(=O)c2ccc3c(O)c(S(=O)(=O)c4ccccc4)c(=O)[nH]c3c2)cc1` the Potency was active: 11.2 µM. For `Cc1ccc(NC(=O)CSc2ccc(-c3ccccn3)nn2)cc1F`, the Potency was inconclusive: 11.2 µM [inhibitor, single point]. For `COCc1noc(CCNc2cc(C)nc(-c3ccccc3O)n2)n1`, the Potency was inconclusive: 7.08 µM [inhibitor, partial curve, poor fit]. In the case of `Cc1c(C(=O)OC2CCCCCC2)[nH]c2c1C(=O)CC(c1ccc(N(C)C)cc1)C2` (centres undefined), the activity, negative = inhibition is reported as inconclusive: -139% [inhibitor] [at 5.79 µM]. For `CCCS(=O)(=O)N1CCCN(Cc2ccncc2)C(c2ccccc2)CC(=O)NCC1` (centres undefined), the Potency was active: 14.1 µM. With `CCc1noc(-c2cn(C3CCN(C(=O)c4ccco4)C3)nn2)n1` (centres undefined) the Potency was “inactive”. With `CCN(C)C(=O)CCc1c(C)nn(-c2ccccc2)c1Oc1ccc(F)cc1F` the Potency was inconclusive: 11.2 µM [inhibitor, single point]. With `COC(=O)c1ccc(Cl)cc1NC(=O)N(Cc1ccc(OC)cc1)C1CCN(C(C)=O)CC1` the Potency was inconclusive: 12.6 µM [inhibitor, single point]. For `O=C(c1cccnc1OC1CCN(Cc2ccccn2)C1)N1CCCCC1` (centres undefined), the Potency was “inactive”. In the case of `COc1cc(C(=O)N(Cc2cccnc2)c2nc3cc(C)c(C)cc3s2)cc(OC)c1OC`, the Potency is reported as inconclusive: 17.8 µM [inhibitor, single point]. With `CN1C(=O)C(C)(C)c2cc(S(=O)(=O)N3CCCC3C(=O)Nc3ccc(F)cc3)ccc21` (centres undefined) the Potency was inconclusive: 11.2 µM [inhibitor, single point]. With `COc1ccc(Cn2c(C3CCN(C(=O)c4cccc(C)c4)CC3)n[nH]c2=O)cc1` the Potency was inconclusive: 10 µM [inhibitor, single point]. In the case of `Cc1oc(C)c2c(=O)cc(-c3ccc4c(c3)OCO4)cc(OC(=O)c3cccc(Cl)c3)c12`, the Potency is reported as inconclusive: 20 µM [inhibitor, single point]. For `COc1ccc(S(=O)(=O)N(Cc2nc(-c3ccc(Cl)cc3)no2)C2CCCCC2)cc1`, the Potency was inconclusive: 15.8 µM [inhibitor, single point]. In the case of `N#Cc1c(C(F)(F)F)cc(-c2cccs2)nc1SCC(=O)Nc1cccc(C(F)(F)F)c1`, the Potency is reported as inconclusive: 12.6 µM [inhibitor, single point]. In the case of `Cc1ccc(N2Cc3c(ncnc3N3CCN(C)CC3)N(C)CC2=O)cc1`, the Potency is reported as “inactive”. In the case of `CC(C)CCNC(=O)CN1C(=O)c2cccnc2Sc2ccccc21`, the Potency is reported as inconclusive: 10 µM [inhibitor, single point]. For `COc1cccc(-c2nc3cc4c(cc3cc2CN2CCSCC2)OCO4)c1OC`, the Potency was active: 11.2 µM. For `COc1ccc(CC(=O)Nc2cc(-c3cn4cccnc4n3)ccc2OC)cc1`, the Potency was inconclusive: 10 µM [inhibitor, single point]. In the case of `c1cnc(Oc2cccc(CN(Cc3ccsc3)CC3CCCO3)c2)nc1` (centres undefined), the Potency is reported as “inactive”. In the case of `CCCN1CCN(CCNC(=O)c2cn3ccnc(-c4ccc(OC)cc4)c3n2)CC1`, the Potency is reported as inconclusive: 17.8 µM [inhibitor, single point]. With `CCc1nc2cc(N3CCC(C(=O)NCc4ccc5c(c4)OCO5)CC3)cnc2nc1CC` the Potency was inconclusive: 0.224 µM [inhibitor, full curve, poor fit]. In the case of `CN(C)c1ccc(NC(=O)CSc2nc3ccsc3c(=O)n2CCCCCC(=O)O)cc1`, the Potency is reported as “inactive”. For `Cc1c(C(=O)N(Cc2ccco2)Cc2ccccc2Cl)oc2ccc(F)cc12`, the Potency was inconclusive: 10 µM [inhibitor, single point]. In the case of `COc1cc(NC(=O)Nc2nc3c(s2)C[C@]2(C)CC[C@@H]4[C@H](OC(=O)[C@H]4C)[C@H]2[C@@H]3C)cc(OC)c1`, the Potency is reported as inconclusive: 8.91 µM [inhibitor, partial curve, poor fit]. In the case of `CCCCOc1ccccc1C(=O)N(Cc1cccc(F)c1)C1CCS(=O)(=O)C1` (centres undefined), the Potency is reported as inconclusive: 20 µM [inhibitor, single point]. With `O=C(CSc1nc2nccnc2c(=O)n1CCc1c[nH]c2ccccc12)Nc1ccc(F)cc1` the Potency was inconclusive: 17.8 µM [inhibitor, single point]. In the case of `COc1ccc(NC(=O)N2C[C@@H]3C[C@H](C2)c2ccc(NS(=O)(=O)c4ccc(NC(C)=O)cc4)c(=O)n2C3)cc1`, the Potency is reported as inconclusive: 17.8 µM [inhibitor, single point]. For `O=C(Cn1nc2c(cc1=O)CCCC2)Nc1nc(-c2cccnc2)cs1`, the Potency was “inactive”. With `O=C(c1c[nH]c2ccccc12)N1CCC2(CC1)CNS(=O)(=O)c1cccnc1O2` the Potency was inconclusive: 20 µM [inhibitor, single point]. For `C[S+](=O)([O-])CCn1ncc2cc(OCc3cccc(-c4cccc(CO)c4)c3)ccc21`, the Potency was “inactive”. With `COc1ccc(C)cc1NC(=O)Nc1ccccc1OCc1cc(=O)n2ccccc2n1` the Potency was inconclusive: 11.2 µM [inhibitor, single point]. For `Cc1ccc(CCN2CCCCC23Cc2ccccc2CN([S+](C)(=O)[O-])C3)cc1` (centres undefined), the Potency was active: 10 µM. For `N#Cc1cccc(-c2ccnc(N[C@H]3CO[C@H]4[C@@H]3OC[C@H]4OC(=O)NC3CCCCC3)n2)c1`, the Potency was “inactive”. For `NC1CCc2nn(CC(=O)N(Cc3ccccc3)Cc3ccco3)c(=O)n2CC1` (centres undefined), the Potency was inconclusive: 20 µM [inhibitor, single point]. With `CC(=O)N1CCCN(c2ncnc3c2CN(c2ccc([N+](=O)[O-])cc2)C(=O)N(C)C3)CC1` the Potency was “inactive”. In the case of `OCC1CN(C2CCC2)CC12CCN(Cc1ccsc1)CC2` (centres undefined), the Potency is reported as inconclusive: 10 µM [inhibitor, single point]. With `COCCn1ncc(N2CCCC(CC(=O)NCc3cccc(F)c3)C2)cc1=O` (centres undefined) the Potency was “inactive”. For `O=C(Nc1ccc(F)cc1)C1CCc2nc(N3CCN(C(=O)C4CCC4)CC3)sc2C1` (centres undefined), the Potency was inconclusive: 4.47 µM [inhibitor, full curve, poor fit]. In the case of `O=C1CC(c2noc(-c3ccc(F)cc3)n2)CN1c1ccc(Cl)cc1` (centres undefined), the Potency is reported as “inactive”. With `CCOC(=O)c1ccc(N2C(=O)c3n[nH]c(-c4ccco4)c3C2c2cccc(O)c2)cc1` (centres undefined) the Potency was inconclusive: 10 µM [inhibitor, partial curve, poor fit]. For `COc1cc(OC)c(-c2nc3ccc(-c4ccc(OC)c(OC)c4OC)cc3o2)cc1OC`, the Potency was inconclusive: 3.98 µM [inhibitor, single point]. For `O=C(Nc1ccc(Cl)cc1)NC1CCN(c2nc3ncccc3o2)CC1`, the Potency was inconclusive: 4.47 µM [inhibitor, partial curve].

— PubChem BioAssay AID1347417 (National Center for Advancing Translational Sciences (NCATS), 2020)
Potency is the fitted concentration of half-maximal effect; tags give direction and shape of the fitted curve.
